Results taken from publication PMC4336329 (PLoS ONE, 2015).
Out of some 310,000 compounds screened, about 2,200 (0.71%) showed an effect of 50% or more. The effect is printed as a negative number. This is one part of the list.

Each compound was assayed against human ether-à-go-go-related gene (hERG) potassium channel (human, UniProt Q12809) (assay: primary screen, population patch clamp on CHO cells stably expressing hERG).
Chain of human ether-à-go-go-related gene (hERG) potassium channel (Q12809 whole entry, looked up): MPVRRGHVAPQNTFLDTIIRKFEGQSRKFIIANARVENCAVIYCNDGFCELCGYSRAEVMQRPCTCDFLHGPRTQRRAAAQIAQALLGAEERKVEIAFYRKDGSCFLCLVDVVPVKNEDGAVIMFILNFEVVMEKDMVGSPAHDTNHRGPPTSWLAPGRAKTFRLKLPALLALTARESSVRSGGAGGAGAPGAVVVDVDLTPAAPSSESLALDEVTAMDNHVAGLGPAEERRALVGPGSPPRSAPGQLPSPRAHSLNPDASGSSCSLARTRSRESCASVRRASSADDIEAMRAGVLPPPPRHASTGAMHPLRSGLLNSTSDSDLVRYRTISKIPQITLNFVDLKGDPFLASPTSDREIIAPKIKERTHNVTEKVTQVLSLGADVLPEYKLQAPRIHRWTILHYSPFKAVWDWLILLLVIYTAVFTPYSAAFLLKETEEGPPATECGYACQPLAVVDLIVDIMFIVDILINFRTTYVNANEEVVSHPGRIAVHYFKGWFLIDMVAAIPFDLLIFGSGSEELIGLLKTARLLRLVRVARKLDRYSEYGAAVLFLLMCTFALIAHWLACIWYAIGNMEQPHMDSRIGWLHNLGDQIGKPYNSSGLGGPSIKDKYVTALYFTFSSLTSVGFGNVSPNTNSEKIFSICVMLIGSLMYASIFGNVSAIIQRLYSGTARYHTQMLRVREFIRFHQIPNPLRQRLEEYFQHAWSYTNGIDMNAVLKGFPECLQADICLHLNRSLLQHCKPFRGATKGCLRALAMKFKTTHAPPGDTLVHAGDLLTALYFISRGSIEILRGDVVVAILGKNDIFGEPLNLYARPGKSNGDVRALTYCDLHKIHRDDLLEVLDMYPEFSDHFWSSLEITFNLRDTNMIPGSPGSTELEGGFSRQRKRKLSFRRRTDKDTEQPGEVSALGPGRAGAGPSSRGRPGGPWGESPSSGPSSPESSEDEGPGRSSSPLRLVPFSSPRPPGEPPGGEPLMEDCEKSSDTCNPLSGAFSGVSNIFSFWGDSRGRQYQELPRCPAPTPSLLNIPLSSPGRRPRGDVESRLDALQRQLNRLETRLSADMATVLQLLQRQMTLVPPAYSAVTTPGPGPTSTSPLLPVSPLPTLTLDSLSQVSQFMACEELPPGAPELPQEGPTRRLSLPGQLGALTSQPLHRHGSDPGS

Point of comparison: CC(Oc1ccc(F)cc1)C(=O)Nc1cc(S(=O)(=O)N2CCOCC2)ccc1N1CCN(C)CC1 (stereo not drawn), “hERG current change (%, negative = inhibition) at 1uM” value 5.48%. Against it:
- Cc1cc(NC(=O)Nc2ccc(F)cc2)no1 — lower, -4.5%
- CC(C)Cc1ccc(CN2CCCC(NC(=O)CCN3CCCCC3=O)C2)cc1 (stereo not drawn) — higher, 6.37%
- Cc1c(OC(=O)N(C)C)ccc2c1O/C(=C\c1ccco1)C2=O — higher, 14.8%
- CC(=O)c1cccc(CN2CCC(n3nccc3NC(=O)CCOc3ccccc3)CC2)c1 — higher, 23.6%
- Cl.O=C(OCCN1CCOCC1)c1ccc(Cl)cc1Cl — higher, 7.15%
- COc1ccc(NC(=O)C2=C(C)Nc3ncnn3C2c2ccccc2C(F)(F)F)c(OC)c1 (stereo not drawn) — higher, 10.2%
- Clc1ccc(-n2ncc3c(NCc4cccnc4)ncnc32)cc1Cl — higher, 13.8%
- COc1cccc(C2C3=C(CCCC3=O)NC3=C2C(=O)c2ccccc23)c1 (stereo not drawn) — higher, 8.22%
- O=C(NCCS(=O)(=O)N1CCN(c2ccccc2F)CC1)c1ccco1 — lower, 0.315%
- Cn1nnnc1SCC(=O)c1c(N)n(C)c(=O)n(C)c1=O — higher, 15.1%
- CCC(C)[C@H](NC(=O)NCc1ccc(Cl)cc1)C(=O)O (stereo partly drawn) — lower, -3.21%
- CCOC(=O)c1[nH]c2ccc(F)cc2c1NC(=O)CN1CCc2cc(OC)c(OC)cc2C1 — higher, 11.2%
- C=CCSc1nc2ccccc2n1Cc1nnc(-c2cccs2)o1 — lower, -17.8%
- O=C(c1cccc(Cl)c1)N1CCCC(C(=O)N2CCN(c3ccccc3)CC2)C1 (stereo not drawn) — lower, -13.1%
- O=C(CCN1C(=O)/C(=C\c2ccccc2Cl)SC1=S)Nc1cccnc1 — higher, 10.8%
- O=C(NCc1ccccc1)C(c1ccncc1)N(C(=O)c1csnn1)C1CC1 (stereo not drawn) — higher, 11.6%
- CN(CC(=O)Nc1ccc(F)c(F)c1F)C(=O)C1CCN(C(=O)Nc2ccccc2)CC1 — lower, -0.567%
- COc1cc(OC)c2ccc(=O)oc2c1C(CCN1CCCC(C)C1)c1ccc(N(C)C)cc1 (stereo not drawn) — higher, 6.25%
- O=C(Oc1ccc(-c2nnco2)cc1)c1ccc(Br)o1 — higher, 9.14%
- O=S(=O)(Nc1cc(C(F)(F)F)ccc1N1CCOCC1)c1ccccc1 — higher, 9.03%
- Cc1cccc(CN2C(=O)c3ccccc3Sc3ccc(C(=O)O)cc32)c1 — higher, 13.7%
- COc1ccc(C)cc1NC(=O)c1nn(C)cc1Br — higher, 12.3%
- Nc1ncc(Br)cc1S(=O)(=O)NCCC(=O)NCc1ccc(F)cc1 — lower, 1.42%
- CCOc1ccc(NC(=O)Cn2nnc(C(=O)NCc3ccc(OC)cc3)c2N)cc1 — lower, -0.828%
- C/C(=N\n1c(C)nc2ccccc2c1=O)c1ccc(N)cc1 — higher, 17.5%
- COC(=O)NC1(C(F)(F)F)NC(=O)N(C2CCCCC2)C1=O (stereo not drawn) — lower, 5.15%
- S=C(Nc1ccc(Oc2ccccc2)cc1)N(CCCN1CCOCC1)Cc1ccccn1 — lower, -0.69%
- C=CCn1c(COc2ccc(OC)cc2)nnc1SC(C)C(=O)NC1CC1 (stereo not drawn) — lower, 3.53%
- O=c1c(N2CCOCC2)nsnc1N1CCOCC1 — lower, 2.95%
- CCOc1cc(/C=N/N=C/c2ccc(O)c(OCC)c2)ccc1O — higher, 8.76%
- CC(C)(C)C1=C(C#N)C(c2cccnc2)C(C#N)=C(N)O1 (stereo not drawn) — higher, 11.3%
- CC(C)(C)OC(=O)CNC(=O)c1[nH]cnc1C(=O)N[C@@H](Cc1ccccc1)C(=O)OC(C)(C)C — higher, 8.05%
- O=C(NCCS(=O)(=O)N1CCc2ccccc2C1)c1ccccc1 — lower, -5.31%
- COc1cc2[nH]c(=O)n(CCCCCC(=O)N3CCN(c4ccccc4)CC3)c(=O)c2cc1OC — higher, 7.57%
- O=C(O)c1cccc(S(=O)(=O)Nc2ccc(OCc3ccccc3)cc2)c1 — higher, 19.7%
- CN(C)CC(C)(C)CNC(=S)NCc1ccc2c(c1)OCO2 — higher, 7.13%
- O=C(CSc1nnc(NC(=O)Cc2ccccc2)s1)NCc1ccco1 — higher, 9.5%
- CC1Oc2ccccc2OC1C(=O)Nc1ccccn1 (stereo not drawn) — higher, 11%
- CNC(=O)CCCc1nc(-c2ccccc2Cl)no1 — higher, 12.8%
- CCc1ccc(NC(=O)c2cnn(-c3ccccc3)c2C)cc1 — lower, 4.6%
- COc1ccc(CCNc2cc(C)nc3c(-c4ccc(Cl)cc4)c(C)nn23)cc1OC — higher, 6.5%
- CCSC1=C(C#N)C(c2ccccc2Cl)C(C(=O)c2cccs2)C(O)(C(F)(F)F)N1 (stereo not drawn) — higher, 12.1%
- COc1cccc(C(=O)Oc2c(CN3CCOCC3)cc(Cl)c3cccnc23)c1 — lower, -2.81%
- O=C(NCCN1CCOCC1)c1cc(-c2ccc(Cl)cc2)on1 — lower, -9.57%
- Cc1sc2ncnc(SCC(=O)NC(=O)NCc3ccco3)c2c1C — lower, 5.25%
- Cc1ccc(C(=O)/C=C2\NCCNC2=O)cc1 — higher, 15.2%
- CC(=O)c1cccc(NC(=S)N2CCc3ccccc32)c1 — higher, 9.99%
- N/C(=N\NC(=O)c1ccc(Cl)cc1)c1cnccn1 — higher, 13.4%
- COC(=O)CN1CCN(C(=O)c2ccco2)CC1 — higher, 14.6%
- CCCCn1c(N)c(N(CCOC)C(=O)c2ccc(S(=O)(=O)N3CCCCC3)cc2)c(=O)[nH]c1=O — lower, -12.9%
- C/C(=N\NC(=O)c1cccc(O)c1)c1cccc(NC(=O)c2ccc(F)cc2)c1 — lower, 0.544%
- O=C(Nc1ccc(Cl)cc1)c1ccc(OCC2CCCO2)cc1 (stereo not drawn) — higher, 8.34%
- Cn1c(CNC(=O)C2CCCCC2)cc2ccccc21 — higher, 18.9%
- COc1cccc(NC(=O)C(C)N2C(=O)c3ccccc3C2=O)c1 (stereo not drawn) — higher, 7.41%
- CN(C)/C=C(/C(=O)c1ccc(F)cc1)S(=O)(=O)c1ccc(F)cc1 — higher, 11.6%
- CCOC(=O)c1cc2[nH]c3ccccc3c2[n+](-c2ccc([N+](=O)[O-])cc2)c1C.[Cl-] — lower, -70.6%
- FC(F)(F)c1cc(-c2ccccc2)nc(NCc2cccs2)n1 — higher, 14.2%
- Cc1ccc(CNC(=O)c2ccc(Cl)c(S(=O)(=O)N3CCCCC3)c2)cc1 — higher, 5.88%
- O=C(O)Cc1c(C(=O)O)[nH]c2ccc(C(=O)O)cc12 — higher, 6.33%
- Nc1nc2ccccc2n1C(=O)c1ccccc1 — lower, -5.83%
- COc1cccc(-n2c(SCC(N)=O)nnc2-c2ccco2)c1 — higher, 12.8%
- CC1CC(C)CN(S(=O)(=O)c2ccc3c(c2)CCN3C(=O)CCC(=O)O)C1 (stereo not drawn) — higher, 7.38%
- CNC(=O)NC(=O)CSc1nnc(C(F)(F)F)n1C — higher, 8.32%
- CCC(C)N(C(=O)COC(=O)CN=C1NS(=O)(=O)c2ccccc21)C1CCS(=O)(=O)C1 (stereo not drawn) — lower, 3.44%
- COc1cc(OC)c(OC)cc1CCC(C)NC(=O)Cc1ccccc1 (stereo not drawn) — lower, 1.35%
- O=C(Nc1ccccc1F)Nc1cc(S(=O)(=O)N2CCOCC2)ccc1N1CCCC1 — higher, 6.7%
- COc1cccc(N2CCN(CC(=O)Nc3ccccc3C(=O)NCc3ccccc3)CC2)c1 — higher, 6.34%
- O=C1c2ccncc2C(=O)N1Cc1cccc(Cl)c1 — lower, 1.04%
- COc1ccccc1C(=O)NC(CCSC)C(=O)OCC(=O)c1ccc[nH]1 (stereo not drawn) — lower, 4.33%
- CCS(=O)(=O)N1CCCC(C(=O)NCCc2ccc(C)cc2)C1 (stereo not drawn) — lower, 5.15%
- O=C(Nc1ccccc1Cl)c1ccc(-c2ccccn2)s1 — higher, 6.87%
- CC(C)N(C(=O)Cn1cc(SCC(=O)NCc2ccco2)c2ccccc21)C(C)C — lower, -5.87%
- COc1ccc(C(=O)CC(SCC(NC(C)=O)C(=O)O)c2ccc(Cl)cc2)cc1OC (stereo not drawn) — higher, 13%
- Cc1[nH]cnc1C(=O)N/N=C/c1ccc([N+](=O)[O-])s1 — higher, 17.9%
- CCCn1nnc2sc3c(c2c1=O)CCC(C)C3 (stereo not drawn) — higher, 13.6%
- O=c1cc(-c2ccc(O)cc2)oc2cc(O[C@@H]3O[C@H](CO)[C@@H](O)[C@H](O)[C@H]3O[C@@H]3OC[C@](O)(CO)[C@H]3O)cc(O)c12 — higher, 12.2%
- CCN1CCCC1CNC(=O)c1cc(COc2ccc(C)c(C)c2)on1 (stereo not drawn) — lower, -18.3%
- C[C@H](NC(=O)CCC(=O)N1C[C@H]2C[C@H](C1)c1cccc(=O)n1C2)c1ccccc1 — higher, 6.45%
- O=S(=O)(c1cccc(-c2cn3cc(Cl)ccc3n2)c1)N1CCOCC1 — lower, 1.73%
- Cc1ccc(S(=O)(=O)CCC(=O)OCC(=O)N2CCN(c3ccccc3)CC2)cc1 — lower, -7.19%
- COc1ccc(CN(C)C(=O)c2ccc3c(=O)n4c(nc3c2)CCC4)c(OC)c1 — higher, 14.3%
- Nc1nc(SCc2ccccc2)ns1 — higher, 13.5%
- Cl.Nc1nc2nc(SCC(=O)N3CCCc4ccccc43)[nH]c2c(=O)[nH]1 — higher, 12.3%
- CCCS(=O)(=O)N1CCC(C(=O)NCCN(C)Cc2ccccc2)CC1 — higher, 13.2%
- COCC(=O)Oc1c(S(=O)(=O)c2ccccc2)c(C)nn1C(C)(C)C — higher, 12%
- Cc1cc(C(=O)CN2C(=O)NC3(CCCCC3)C2=O)c(C)n1C — lower, -2.9%
